# ± gives the standard error. Variants at the background level are over-represented here.
# B1: glmS ribozyme (parent)
# chain: AUAAAAGCGCCAGAACUACAGAAAUGUAGUUGACGAGGAGGAGGUUUAUCGAAUUUUCGGCGGAUGCCUCCAAA
# What was measured:
# Settings in all cases: with glucosamine-6-phosphate
# [1] = variants of: B1; experiment: self-cleavage kobs at 40 uM GlcN6P; higher = faster cleavage; RNA array
# Summary of the method: (§1)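 Tracking of barcoded ribozyme variants used a hybridised Cy3 probe at 37 °C, after in situ transcription by E. coli RNA polymerase on sequenced MiSeq chips. The flowed solution held 40 μM to 10 mM glucosamine-6-phosphate in HEPES/KCl/Mg(OAc)2 buffer, and imaging ran over ~14 h. kobs was taken from exponential decay fits of normalised per-tile medians, and kcat and KM from weighted Michaelis–Menten fits.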
# [2] = variants of: B1; experiment: self-cleavage kobs at 640 uM GlcN6P; higher = faster cleavage; RNA array
# Summary of the method: as §1
# [3] = variants of: B1; experiment: self-cleavage kobs at 10000 uM GlcN6P; higher = faster cleavage; RNA array
# Summary of the method: as §1
# [4] = variants of: B1; experiment: self-cleavage kobs at 160 uM GlcN6P; higher = faster cleavage; RNA array
# Summary of the method: as §1
# [5] = variants of: B1; experiment: self-cleavage kobs at 2500 uM GlcN6P; higher = faster cleavage; RNA array
# Summary of the method: as §1
Variant,self-cleavage kobs at 40 uM GlcN6P [1] [s⁻¹],self-cleavage kobs at 640 uM GlcN6P [2] [s⁻¹],self-cleavage kobs at 10000 uM GlcN6P [3] [s⁻¹],self-cleavage kobs at 160 uM GlcN6P [4] [s⁻¹],self-cleavage kobs at 2500 uM GlcN6P [5] [s⁻¹]
A39C U57C,< 1e-05,,,,
A39C U69G,< 1e-05,< 1e-05,< 1e-05,,
A39G A42C,< 1e-05,,,,
A39G A52C,< 1e-05,,2.99e-05 ± 1.2e-05,< 1e-05,
A39G A52C U65G C70A,< 1e-05,,< 1e-05,,
A39G A53C G60C,< 1e-05,,< 1e-05,,
A39G A53G,0.0015 ± 0.00022,0.0194 ± 0.0037,,0.00433 ± 0.00068,0.0404 ± 0.015
A39G C50A,< 1e-05,,,< 1e-05,
A39G C50U U57A,< 1e-05,< 1e-05,< 1e-05,,< 1e-05
A39G C68G,2.98e-05 ± 1.4e-05,0.000165 ± 5e-05,,6.43e-05 ± 1.3e-05,0.000286 ± 4.7e-05
A39G G40U,9.64e-05 ± 1.6e-05,0.000551 ± 8.8e-05,,0.000207 ± 4.9e-05,0.0015 ± 0.00022
A39G G43U,< 1e-05,,,,
A39G G44U C71U,< 1e-05,,,,
A39G G51U C58G U65G,< 1e-05,,< 1e-05,,
A39G G59U,< 1e-05,,5.72e-05 ± 9.8e-06,< 1e-05,
A39G G66U,0.000107 ± 1.9e-05,0.00133 ± 0.00029,0.00451 ± 0.00097,,0.00285 ± 0.0009
A39G U45G,0.00047 ± 6.3e-05,0.00416 ± 0.00099,0.0173 ± 0.0023,0.00207 ± 0.00047,0.00467 ± 0.0013
A39G U47A,0.00119 ± 0.00019,,,,
A39G U54A,0.00173 ± 0.00037,,,,
A39U A42G,0.000671 ± 0.00011,0.0052 ± 0.0011,0.019 ± 0.006,0.00186 ± 0.00055,0.0216 ± 0.0065
A39U A48U C67G,< 1e-05,,,,
A39U A52U C68G,< 1e-05,,,,
A39U A53C C68G,< 1e-05,,,,
A39U A53C G62A C68U,< 1e-05,,< 1e-05,,
A39U A53U,0.000461 ± 5e-05,0.00368 ± 0.00054,0.0126 ± 0.0017,0.000985 ± 0.00016,0.00619 ± 0.001
A39U C50G C68A,< 1e-05,,,,

Variant,self-cleavage kobs at 40 uM GlcN6P [1] [s⁻¹],self-cleavage kobs at 640 uM GlcN6P [2] [s⁻¹],self-cleavage kobs at 10000 uM GlcN6P [3] [s⁻¹],self-cleavage kobs at 160 uM GlcN6P [4] [s⁻¹],self-cleavage kobs at 2500 uM GlcN6P [5] [s⁻¹]
A39U C58A G59U C71U,< 1e-05,,,,
A39U C61G,< 1e-05,< 1e-05,< 1e-05,< 1e-05,< 1e-05
A39U C68U,0.000444 ± 8.6e-05,0.00309 ± 0.00026,0.00694 ± 0.0011,0.000829 ± 9e-05,0.00636 ± 0.00063
A39U C68U C71G,< 1e-05,,4.42e-05 ± 2e-05,,
A39U C71G,4.48e-05 ± 8.3e-06,,,,
A39U G40U C70U,9.82e-05 ± 1.8e-05,,,0.000392 ± 6.8e-05,
A39U G43U,1.76e-05 ± 8.1e-06,0.000127 ± 1.3e-05,0.00046 ± 4.6e-05,5.96e-05 ± 8.5e-06,0.000418 ± 4.9e-05
A39U G43U C61U,< 1e-05,< 1e-05,< 1e-05,,< 1e-05
A39U G44U C61A,< 1e-05,,< 1e-05,,
A39U U54G U56C C68G,< 1e-05,,,,
A39U U56C,3.9e-05 ± 8.2e-06,,,,
A39U U56G,0.000177 ± 2.7e-05,,,,
G40A A42G A52C A53C,< 1e-05,< 1e-05,,,< 1e-05
G40A A48C U57A C61G,< 1e-05,,,,< 1e-05
G40A A64C,< 1e-05,,,,
G40A C50A,< 1e-05,< 1e-05,,< 1e-05,< 1e-05
G40A C50U U54C C68U,< 1e-05,,< 1e-05,< 1e-05,
G40A C68G C71A,< 1e-05,,,,< 1e-05
G40A C70A,2.59e-05 ± 1.2e-05,0.000163 ± 2.5e-05,0.000217 ± 3.8e-05,6.86e-05 ± 1.9e-05,0.000235 ± 4.9e-05
G40A C71G,0.000326 ± 5.2e-05,,,,
G40A G43C G66A,< 1e-05,< 1e-05,,,
G40A G59C,< 1e-05,,< 1e-05,,
G40A G60A U69A,< 1e-05,,,,
G40A U45A,0.000251 ± 3.8e-05,0.00157 ± 0.00029,0.00427 ± 0.00099,0.000585 ± 0.00027,0.00221 ± 0.00084
G40A U45G,5.96e-05 ± 1.5e-05,0.000563 ± 0.00021,0.000145 ± 3.5e-05,,0.000133 ± 4.2e-05
